# Results published in the supplement of paper PMC12067230.
# This is a noisy data set.
# Experiment: amyloid nucleation score relative to library mode (yeast Sup35 reporter selection) (log enrichment difference); higher = more amyloid nucleation; sequences are the first 22 residues of the Bri2 peptide extended by up to 12 random residues
# Conditions: random library (experiment): 1;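 active = nucleation score significantly above 0 at FDR 0.05; inactive = not significantly above 0 or absent from output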
# 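Note: [psi-pin-] Saccharomyces cerevisiae expressing SupN fusions, induced by 100 µM Cu2SO4, selected 7 d at 30 °C without adenine and uracil, scored by deep sequencing of output versus input.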
row,Sequence,amyloid nucleation score
1,EASNCFAIRHFENKFAVETLICLLPWKWGESKGS,7.68
2,EASNCFAIRHFENKFAVETLICLLQCLTMLSRKE,inactive
3,EASNCFAIRHFENKFAVETLICLLQWACSCRLWS,inactive
4,EASNCFAIRHFENKFAVETLICLLRA,inactive
5,EASNCFAIRHFENKFAVETLICLLRCAERTYAKG,inactive
6,EASNCFAIRHFENKFAVETLICLLRGSLRVETRW,-0.187
7,EASNCFAIRHFENKFAVETLICLLRNPVRAPSGR,inactive
8,EASNCFAIRHFENKFAVETLICLLRRLRGLFRIA,inactive
9,EASNCFAIRHFENKFAVETLICLLRSSINMQGGW,inactive
10,EASNCFAIRHFENKFAVETLICLLRTKFMFQPIR,inactive
11,EASNCFAIRHFENKFAVETLICLLRYLRVCRHE,-0.288
12,EASNCFAIRHFENKFAVETLICLLS,7.38
13,EASNCFAIRHFENKFAVETLICLLSGPANRRFSC,inactive
14,EASNCFAIRHFENKFAVETLICLLSGRWRSGLVG,inactive
15,EASNCFAIRHFENKFAVETLICLLSGVHGAEAHG,inactive
16,EASNCFAIRHFENKFAVETLICLLSLDCGGVLLT,inactive
17,EASNCFAIRHFENKFAVETLICLLSRYNWSPLLW,inactive
18,EASNCFAIRHFENKFAVETLICLLSSSCPGAYAL,inactive
19,EASNCFAIRHFENKFAVETLICLLSSYKWCRREY,inactive
20,EASNCFAIRHFENKFAVETLICLLSYWFFALVWQ,inactive
21,EASNCFAIRHFENKFAVETLICLLTGLLGFMRTR,inactive
22,EASNCFAIRHFENKFAVETLICLLTILYNYGWQW,inactive
23,EASNCFAIRHFENKFAVETLICLLTYPSVVFDRC,-0.12
24,EASNCFAIRHFENKFAVETLICLLVCSGREHTGV,inactive
25,EASNCFAIRHFENKFAVETLICLLVCTYICRG,0.0198
26,EASNCFAIRHFENKFAVETLICLLVICWMGLAR,0.609
27,EASNCFAIRHFENKFAVETLICLLVK,inactive
28,EASNCFAIRHFENKFAVETLICLLVMST,inactive

row,Sequence,amyloid nucleation score
1,EASNCFAIRHFENKFAVETLICLLVNIS,4.65
2,EASNCFAIRHFENKFAVETLICLLVP,-0.45
3,EASNCFAIRHFENKFAVETLICLLWCVQGRSYGW,inactive
4,EASNCFAIRHFENKFAVETLICLLYFVGNKGGFT,3.31
5,EASNCFAIRHFENKFAVETLICLLYRWSMSLMYG,inactive
6,EASNCFAIRHFENKFAVETLICLMALA,inactive
7,EASNCFAIRHFENKFAVETLICLMCET,inactive
8,EASNCFAIRHFENKFAVETLICLMCVCAESWSMS,9.03
9,EASNCFAIRHFENKFAVETLICLME,inactive
10,EASNCFAIRHFENKFAVETLICLMEGQVY,-0.203
11,EASNCFAIRHFENKFAVETLICLMERRIRATAIQ,inactive
12,EASNCFAIRHFENKFAVETLICLMFFRF,inactive
13,EASNCFAIRHFENKFAVETLICLMFLPAWSAHYR,inactive
14,EASNCFAIRHFENKFAVETLICLMGLPLLTRLLA,inactive
15,EASNCFAIRHFENKFAVETLICLMIMDVCGGWLL,inactive
16,EASNCFAIRHFENKFAVETLICLMLCS,6.49
17,EASNCFAIRHFENKFAVETLICLMLEVHYAAHRR,inactive
18,EASNCFAIRHFENKFAVETLICLMLG,2.14
19,EASNCFAIRHFENKFAVETLICLMLHPGHFWRSR,3.6
20,EASNCFAIRHFENKFAVETLICLMLRARGVDKAC,2.98
21,EASNCFAIRHFENKFAVETLICLMLRLMKAYRT,inactive
22,EASNCFAIRHFENKFAVETLICLMLRQILASRWE,inactive
23,EASNCFAIRHFENKFAVETLICLMMIMLACVPRS,inactive
24,EASNCFAIRHFENKFAVETLICLMPE,inactive
25,EASNCFAIRHFENKFAVETLICLMPGFCVVALRE,inactive
26,EASNCFAIRHFENKFAVETLICLMQGDKNRVSLE,6.74
27,EASNCFAIRHFENKFAVETLICLMRAVRPPYGCE,inactive

# Same assay, conditions: random library (experiment): 2
row,Sequence,amyloid nucleation score
1,EASNCFAIRHFENKFAVETLICLLPWKNYCYRLT,-0.17
2,EASNCFAIRHFENKFAVETLICLLQLTKRCMGLS,inactive
3,EASNCFAIRHFENKFAVETLICLLQSLEDWFVMG,inactive
4,EASNCFAIRHFENKFAVETLICLLR,inactive
5,EASNCFAIRHFENKFAVETLICLLRCYSRLVSSK,inactive
6,EASNCFAIRHFENKFAVETLICLLRI,inactive
7,EASNCFAIRHFENKFAVETLICLLRLIRTGRRGR,3.16
8,EASNCFAIRHFENKFAVETLICLLRPTNKSVRVC,inactive
9,EASNCFAIRHFENKFAVETLICLLSHRDPLQVSG,inactive
10,EASNCFAIRHFENKFAVETLICLLSHVHYYLLRG,inactive
11,EASNCFAIRHFENKFAVETLICLLSIA,inactive
12,EASNCFAIRHFENKFAVETLICLLSLFCWTEFVY,-0.548
13,EASNCFAIRHFENKFAVETLICLLSLVCCVSC,7.7
14,EASNCFAIRHFENKFAVETLICLLSVLWSTGNVY,inactive
15,EASNCFAIRHFENKFAVETLICLLSYCHYIFGVS,inactive
16,EASNCFAIRHFENKFAVETLICLLTMSARALRPK,3.11
17,EASNCFAIRHFENKFAVETLICLLTRDRSHSFRG,2.27
18,EASNCFAIRHFENKFAVETLICLLTSSVSIGVVV,inactive
19,EASNCFAIRHFENKFAVETLICLLWAEGWAVSPW,inactive

row,Sequence,amyloid nucleation score
1,EASNCFAIRHFENKFAVETLICLLWIGHL,inactive
2,EASNCFAIRHFENKFAVETLICLLYIGWTSLVRK,1.93
3,EASNCFAIRHFENKFAVETLICLMDCTIGVGLER,6.68
4,EASNCFAIRHFENKFAVETLICLMDNIDFKALYF,inactive
5,EASNCFAIRHFENKFAVETLICLMDSYGLLMSHR,1.14
6,EASNCFAIRHFENKFAVETLICLMF,7.62
7,EASNCFAIRHFENKFAVETLICLMFDDQTIIMS,inactive
8,EASNCFAIRHFENKFAVETLICLMFE,3.22
9,EASNCFAIRHFENKFAVETLICLMFGSW,5.06
10,EASNCFAIRHFENKFAVETLICLMFHLY,inactive
11,EASNCFAIRHFENKFAVETLICLMFMHITANMSY,-0.215
12,EASNCFAIRHFENKFAVETLICLMFSIVVLVMQW,inactive
13,EASNCFAIRHFENKFAVETLICLMGFDRVSKLIP,inactive
14,EASNCFAIRHFENKFAVETLICLMIVGNVSVRVN,4.05
15,EASNCFAIRHFENKFAVETLICLMKTR,inactive
16,EASNCFAIRHFENKFAVETLICLMLAGYN,inactive
17,EASNCFAIRHFENKFAVETLICLMLFSKVLMKVC,inactive
18,EASNCFAIRHFENKFAVETLICLMLFVFVFILTR,2.62
19,EASNCFAIRHFENKFAVETLICLMMYMCLTFVA,inactive

# Same assay, conditions: random library (experiment): 3
row,Sequence,amyloid nucleation score
1,EASNCFAIRHFENKFAVETLICLLRFKGIMSSVA,inactive
2,EASNCFAIRHFENKFAVETLICLLSDNH,4.95
3,EASNCFAIRHFENKFAVETLICLLSFTWSLARHG,inactive
4,EASNCFAIRHFENKFAVETLICLLSNYCQLRLRP,inactive
5,EASNCFAIRHFENKFAVETLICLLSQCSRHSTVQ,-0.0354
6,EASNCFAIRHFENKFAVETLICLLTRKVL,inactive
7,EASNCFAIRHFENKFAVETLICLLTWSTVSRRCK,inactive
8,EASNCFAIRHFENKFAVETLICLLVGIMGGRSRE,inactive
9,EASNCFAIRHFENKFAVETLICLLVSGRHRYA,3.15
10,EASNCFAIRHFENKFAVETLICLLVSGTRHYGLY,inactive
11,EASNCFAIRHFENKFAVETLICLLW,4.91
12,EASNCFAIRHFENKFAVETLICLLWGCWRGMSLG,inactive
13,EASNCFAIRHFENKFAVETLICLLWYWCTIDVVA,inactive
14,EASNCFAIRHFENKFAVETLICLLYCIGPMWSGL,inactive
15,EASNCFAIRHFENKFAVETLICLM,4.4
16,EASNCFAIRHFENKFAVETLICLMCFVAVFRLSV,0.249
17,EASNCFAIRHFENKFAVETLICLMCGTFFALRMM,inactive
18,EASNCFAIRHFENKFAVETLICLMCHEYVLEALV,inactive
19,EASNCFAIRHFENKFAVETLICLMCLV,7.19
20,EASNCFAIRHFENKFAVETLICLMCSWREWEACQ,6.41
21,EASNCFAIRHFENKFAVETLICLMDPDSRPAIL,0.0748
22,EASNCFAIRHFENKFAVETLICLMFDCSSVGSCP,7.87
23,EASNCFAIRHFENKFAVETLICLMGCKLFVAVTL,inactive
24,EASNCFAIRHFENKFAVETLICLMGTWVLVEAVW,inactive
25,EASNCFAIRHFENKFAVETLICLMLEYRTWAVAR,0.527
26,EASNCFAIRHFENKFAVETLICLMLL,0.658
27,EASNCFAIRHFENKFAVETLICLMLR,-0.489
